# Data as given in PubChem BioAssay AID1671194 (National Center for Advancing Translational Sciences (NCATS), 2021).
# Several values for one entry are separate records, joined by “and”; a condition that tells them apart may be missing. Equal entries are not always repeated. Hit rate of the full screen: of about 140,000 compounds, about 240 (0.17%) were called active. Inconclusive means that the source gave no clear call. Such entries were picked first, then a sample of the others. The call rests on the fitted dose curve; in most records, active means well fitted inhibition curve with a large enough effect; inconclusive means small, poorly fitted or top-dose-only effect; inactive means no such curve, though single readings can be large or run the other way. Potencies beside an inconclusive call are fits to weak or partial responses and may not hold up.
# Assay: Primary qHTS assay for inhibitors of alpha-synuclein gene (SNCA) expression; further: nearly all actives have a fitted effect of over 45% in size;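 on activity change, negative = inhibition: plate controls were DMSO cells for no effect and cell-free wells for full effect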
# Conditions: HEK-293 SNCA-luciferase knock-in, luminescence, 24 h; activity change, negative = inhibition: at 57.2 µM (top of the series) unless noted
# Potency means the concentration at half of the fitted maximal effect; tags describe the fitted curve by direction and shape.
SMILES,Potency,"activity change, negative = inhibition"
CN1C(=O)C2(CCN(C(=O)Cc3ccccc3Cl)C2)c2ccccc21 (stereo not drawn),"inconclusive: 6.31 µM [inhibitor, single point]",–
CC(NC(=O)c1cc(-c2ccncc2)cn1C)c1ccc(F)cc1 (stereo not drawn),"inconclusive: 3.16 µM [inhibitor, single point]",–
O=C(CN1C(=O)NC2(CCOCC2)C1=O)N1CCN(c2ccccc2F)CC1,"inconclusive: 10 µM [inhibitor, partial curve]",–
CC1CCN(C(=O)c2ccc3c(c2)N(Cc2ccccc2)C(=O)c2ccccc2S3(=O)=O)CC1,"inconclusive: 20 µM [inhibitor, single point]",–
Cc1ccc(NC(=O)Cn2nc3c(cc2=O)CCCCC3)c(Cl)c1,"inconclusive: 39.8 µM [inhibitor, single point]",–
COc1ccc(NC(=O)CC2CCCCN(C)C2=O)c(OC)c1 (stereo not drawn),"inconclusive: 7.08 µM [inhibitor, single point]",–
CN1C(=O)COC[C@@H]1[C@H](O)c1ccc(NC(=O)c2ccc(C(F)(F)F)cc2)cc1,"inconclusive: 11.2 µM [inhibitor, single point]",–
CCc1ccc(C(=O)N2CCC(Cc3nc(-c4cccc(OC)c4)no3)CC2)cc1,–,inactive: 0.92%
CCN1C(C(=O)c2ccccc2)=C(OC(=O)COc2ccc(OC)cc2)c2ccccc2S1(=O)=O,"inconclusive: 14.1 µM [inhibitor, partial curve, poor fit]",–
CN1CCc2c(sc(NC(=O)CSc3ccc(F)cc3)c2-c2nc3ccccc3s2)C1,"inconclusive: 25.1 µM [inhibitor, single point]",–
COc1ccc(C(=O)N2CCN(c3cc(-c4ccc(Cl)cc4)[nH]n3)CC2)cc1OC,"inconclusive: 20 µM [inhibitor, partial curve, poor fit]",–
CNC(=O)c1cc[nH]c1C1CCCN(C(=O)c2cc(C3CC3)[nH]n2)C1 (stereo not drawn),"inconclusive: 28.2 µM [inhibitor, partial curve, poor fit]",–
CCc1cccc(CC)c1NC(=O)C(Cc1ccccc1)NS(=O)(=O)c1cccc2nsnc12 (stereo not drawn),"inconclusive: 2.82 µM [inhibitor, single point]",–
O=C1NC(=NC2CCCCC2)C2(CCN(Cc3ccsc3)C2)N1c1cccnc1 (stereo not drawn),–,inactive: 7.06%
COc1ccc(C(=O)N2CCC3(CC2)c2[nH]c4ccccc4c2CCN3C)cn1,"inconclusive: 39.8 µM [inhibitor, single point]",–
Cc1ccc([S+](=O)([O-])N2CCCC(C(=O)N3CCCC(c4nc5ccncc5[nH]4)C3)C2)cc1 (stereo not drawn),–,inactive: -24%
Cn1ccc(C2CCCCN2Cc2cc(=O)c3cc(C(N)=O)ccc3[nH]2)n1 (stereo not drawn),–,inactive: -12.2%
Cc1ccsc1-c1nc(CN2CCC(CCn3cccn3)CC2)c(C)o1,"inconclusive: 6.31 µM [inhibitor, single point]",–
Nc1nc(C2CC(N)C2)cc(N2CC(c3nc4ccccc4[nH]3)C2)n1 (stereo not drawn),–,inactive: 6.55%
CCCn1c(SCc2nc(-c3ccccc3OCC)no2)nnc1-c1ccc(Cl)cc1,"inconclusive: 22.4 µM [inhibitor, single point]",–
O=C(C1CCCCN1Cc1ccc(-c2cccs2)cc1)N1CCCC1 (stereo not drawn),"inconclusive: 12.6 µM [inhibitor, partial curve, poor fit]",–

SMILES,Potency,"activity change, negative = inhibition"
Cc1ccc(C2Cn3nnc(C(=O)N4CCN(C(=O)c5cccc(C)c5)CC4)c3CO2)cc1 (stereo not drawn),"inconclusive: 39.8 µM [inhibitor, single point]",–
Cc1ccc(-c2nn3c(=O)cc(CN4CCN(C(=O)/C=C/c5ccccc5)CC4)nc3s2)cc1,"inconclusive: 1 µM [inhibitor, partial curve, poor fit]",–
O=C(CCS(=O)(=O)c1nc(-c2cccs2)cc(C(F)(F)F)n1)Nc1cc(Br)ccc1O,"inconclusive: 39.8 µM [inhibitor, single point]",–
CN(c1ccc(F)cc1)S(=O)(=O)N1CCCC(C(=O)NCc2cccc(Br)c2)C1 (stereo not drawn),"inconclusive: 28.2 µM [inhibitor, single point]",–
O=Cc1ccccc1-c1ccccn1,"inconclusive: 89.1 µM [inhibitor, single point]",–
Cc1noc(C)c1C(=O)N1CCC2(CCCN(C(=O)Nc3cccc(F)c3)C2)CC1,"inconclusive: 39.8 µM [inhibitor, single point]",–
CCCCc1nn(CC(=O)N2CCNC(=O)C2)c(=O)n1CCc1ccccc1,–,inactive: 3.2%
COc1ccc(-c2cc(C(=O)N3CCOCC3)c3c(C)nn(-c4ccccc4)c3n2)cc1,–,inactive: 176%
CC(=O)c1ccc(NC(=O)CSc2nnc3ccc(-c4ccc(Br)cc4)nn23)cc1,"inconclusive: 7.08 µM [inhibitor, single point]",–
COCCN1C(=O)[C@@H]2C[C@@H](CN2Cc2cnc3ccccc3c2)Oc2ccccc21,–,inactive: 3.04% [at 87.6 µM]
Fc1ccc(N2CCCN(CC3[C@H]4CNC[C@@H]34)CC2)cc1 (stereo partly drawn),"inconclusive: 3.98 µM [inhibitor, partial curve]",–
CCCCN1C(=O)c2[nH]nc(-c3ccccc3O)c2C1c1ccc(OCc2ccccc2)cc1 (stereo not drawn),"inconclusive: 39.8 µM [inhibitor, single point]",–
COc1ccccc1-c1ccc(CN2CCC(NC(=O)Cc3cccc(Cl)c3)C2)cc1 (stereo not drawn),"inconclusive: 39.8 µM [inhibitor, single point]",–
Cc1ccc(S(=O)(=O)N2CCCc3cc(NS(=O)(=O)c4cccc(Cl)c4)ccc32)cc1,"inconclusive: 39.8 µM [inhibitor, single point]",–
O=C(Nc1ccccc1)Nc1ccc(=O)n2c1[C@@H]1C[C@@H](CN(C(=O)Nc3ccc(F)cc3)C1)C2,–,inactive: -20%
CCOc1nccn2c(-c3ccc(CNC(=O)Cn4cnnn4)cc3)cnc12,–,inactive: 16.7% [at 87.6 µM]
Cc1ccc(CNC(=O)C2CCN(S(=O)(=O)c3cccc4nonc34)CC2)cc1,"inconclusive: 20 µM [inhibitor, single point]",–
COc1cc(OC)cc(C(=O)N2CCN(c3cc(C(F)(F)F)nc(C)n3)CC2)c1,"inconclusive: 2.82 µM [inhibitor, single point]",–
CN(Cc1cccc2[nH]ccc12)C1CCc2nn(CC3CC3)c(=O)n2CC1 (stereo not drawn),–,inactive: -17.3%
CC(=O)N1CCC([C@@H]2CN(C(=O)c3nccc4ccccc34)C[C@H]2CO)CC1,"inconclusive: 39.8 µM [inhibitor, single point]",–
CCCc1nc(C(=O)N2CCC3(CCc4ccccc43)CC2)cs1,–,inactive: -25.7%

SMILES,Potency,"activity change, negative = inhibition"
COCC(=O)N1C[C@H](NC(=O)C(=O)c2cccn2C)[C@@H](C2CC2)C1,–,inactive: 6.19%
CCc1c2c(nc3ccc(O)cc13)-c1cc3c(c(=O)n1C2)COC(=O)[C@]3(O)CC,"inconclusive: 0.0341 µM [inhibitor, full curve]",–
COC(=O)N1CCN(c2nccc(Nc3ccccc3Cl)n2)CC1,–,inactive: 132%
Cc1ccc2nc(C3CCN(Cc4ccc(-c5cccs5)cc4)CC3)[nH]c(=O)c2c1,"inconclusive: 2.82 µM [inhibitor, full curve, poor fit] and inconclusive: 2.24 µM [inhibitor, full curve, poor fit]",–
CCN(CC)C(=O)[C@@H]1CCC[C@@H](NS(C)(=O)=O)CN(C)C(=O)C1,"inconclusive: 12.6 µM [inhibitor, single point]",–
CN(CC1CCOCC1)C(=O)c1ccc(Cl)cc1,"inconclusive: 2.24 µM [inhibitor, full curve]",–
C#CCNC(=O)C1CCCN1Cc1ccc(-c2cncnc2)cc1 (stereo not drawn),–,inactive: -15.8% [at 87.6 µM]
CCN1c2cc(C(=O)Nc3ccc(OC)c(Cl)c3)ccc2C(=O)N2CCCCCC21 (stereo not drawn),"inconclusive: 39.8 µM [inhibitor, single point]",–
COc1cc(Cl)c(NC(=O)c2cc(S(=O)(=O)N3CCCCC3)c[nH]2)c(OC)c1,"inconclusive: 2.24 µM [inhibitor, full curve]",–
O=C(c1cc(F)ccc1F)N1CC(Oc2ccccc2-c2nc(C3CC3)no2)C1,–,inactive: -12.7%
CC(=O)c1cccc(NS(=O)(=O)c2cc(-c3onc(C)c3C)ccc2C)c1,"inconclusive: 31.6 µM [inhibitor, single point]",–
CC1CCc2c(sc3nnn(CCCCOc4ccc(Cl)cc4)c(=O)c23)C1 (stereo not drawn),"inconclusive: 7.08 µM [inhibitor, single point]",–
COc1ccc(S(=O)(=O)NCCc2sc(-c3cccnc3)nc2C)c(F)c1,"inconclusive: 7.08 µM [inhibitor, single point]",–
COc1ccc(CNC(=O)C[C@@H]2CCNC[C@@H]2Cc2cc(-c3ccc(C(C)(C)C)cc3)on2)cc1,"inconclusive: 31.6 µM [inhibitor, single point]",–
CCOC(=O)c1c(NC(=O)c2cc(OCC)c(OCC)c(OCC)c2)sc2c1CCCCC2,"inconclusive: 2 µM [inhibitor, full curve, poor fit]",–
O=C(Nc1cnc(-c2ccc(C(F)(F)F)cc2)nc1)C1CCOC1 (stereo not drawn),–,inactive: 142%
CCc1noc(-c2cn(C3CCN(C(=O)c4cccc(Cl)c4)CC3)nn2)n1,"inconclusive: 39.8 µM [inhibitor, single point]",–
CN1C(=O)N(C)C2(CCN(Cc3cc(F)ccc3F)C2)C1=O (stereo not drawn),–,inactive: 4.56%
Cc1nn2c(c1-c1ccccc1OCc1ccccc1)N(C(=O)C1CCC1)CCC2,"inconclusive: 28.2 µM [inhibitor, single point]",–
COc1ccc(N(CC(C)C)S(=O)(=O)c2nnc(NC(=O)c3cccs3)s2)cc1,"inconclusive: 3.98 µM [inhibitor, partial curve, poor fit]",–
CN(CC1CCOCC1)C(=O)c1ccccc1,"inconclusive: 0.708 µM [inhibitor, single point]",–
